Source: ChEMBL document CHEMBL4888484, “Replenishing the malaria drug discovery pipeline: Screening and hit evaluation of the MMV Hit Generation Library 1 (HGL1) against asexual blood stage Plasmodium falciparum ,using a nano luciferase reporter read-out” (2022)
About 540 (0.36%) of roughly 150,000 compounds showed an effect of 50% or more. The list shows a part of the results.

What follows are compounds tested on Plasmodium falciparum (assay: Primary screen in NF54 nanoGlo assay, in single point, at 2uM, 72h; a lower Z score goes with more inhibition). Settings: timepoint 72 hour.
Assay type: functional, Erythrocyte

SMILES	% Inhibition	Z score
O=C(c1cnsn1)N1CCO[C@H](c2ccccc2)CC1	1%	-0.07
O=C(Nc1ccc(C(F)(F)F)cc1)N1CCN(c2nc(-c3ccco3)nc3cc(Cl)ccc23)CC1	-4%	0.59
COCCc1nsc(NCC2(O)CCCCC2)n1	-8%	0.8
Cc1cc(=O)c(C(=O)O[C@H](c2ccccc2C)C(F)(F)F)c[nH]1	4%	-0.53
COc1ccc2c(c1)CCCN(C(=O)c1c[nH]c(C)cc1=O)C2	12%	-1.43
CN(C)c1ccc(C(=O)N2CCC3(CC2)C[C@H](O)CNC3=O)cc1	-11%	1.45
CNC(=O)[C@@H](NS(=O)(=O)c1cc(Cl)ccc1C)C(C)C	-14%	2.28
Cc1csc(CNC(C)CC(O)c2cccs2)n1 (configuration not stated)	-8%	1.04
Cc1ccc([C@H]2c3ccccc3CCN2C(=O)C2CCCCC2)cc1	-5%	0.8
O=C(NC1CCN(C2CC2)CC1)c1ccc(O)c(Cl)c1	4%	-0.37
Cn1cccc(C(=O)NC2CC3C(=O)Nc4ccccc4N3C2)c1=O (configuration not stated)	-14%	2.66
C[C@H](O)c1onc(-c2cccs2)c1C(=O)N(C)Cc1ccccc1	-2%	0.24
CCn1c(-c2cc(NC(=O)CC(C)C)[nH]n2)cc2cc(OC)ccc21	-7%	0.85
CC(C)(C)OC(=O)N1CCC2(CC1)N=C(c1cccs1)C(=O)N2Cc1cccc(Cl)c1	-12%	1.48
CC(C)c1nnc(CN2CCS(=O)(=O)C3CCCC32)s1 (configuration not stated)	1%	-0.13
Cc1ccc(OCCNCCO)c(Br)c1	-22%	2.97
CCCCS(=O)(=O)NCc1nc(C(C)(C)C)cs1	-9%	1.17
Cc1ccc(-c2ccccc2CNc2cn(C)nn2)o1	-16%	2.23
NC(=O)C1CCN(C(=O)c2ccc3nc(-c4ccccc4)cn3c2)CC1	-11%	1.9
Cc1ncoc1C(=O)N1CCC[C@H](CC(F)(F)F)C1	-12%	1.59
CN(C)[C@@H](CNS(=O)(=O)c1ccc(-n2cccn2)cc1)c1cc2ccccc2o1	-4%	0.51
COc1ccnc(CN(C)Cc2cccc(N(C)C)c2)c1	5%	-0.95

SMILES	% Inhibition	Z score
CCc1noc(-c2nn(C)c3c2CN(C(=O)C(CC)CC)C3)n1	-3%	0.58
CC(=O)N1CCc2cc(CNC(=O)COc3ccccc3)ccc21	5%	-0.95
COc1ccccc1C(=O)N[C@](C)(CO)CCF	12%	-1.34
CC(C)Cn1cc(C(=O)N2CCCCC[C@H]2c2ncon2)cn1	4%	-0.8
C=CCN1CC[C@H](N(C)C(=O)Nc2ccncc2C)C1=O	3%	-0.4
CCc1cc(Oc2cncc(Br)c2)n2ncnc2n1	-11%	2.16
COc1nccc(N2CCn3nc(CN4CCC[C@H](O)C4)cc3C2)c1C#N	-8%	1.05
CCOC(=O)c1cc(C2CC2)nc2c1c(=O)n(CC(=O)N1CCc3ccccc31)c(=O)n2C	-8%	1.12
Cc1ccc(CN(C)C(=O)C2(Nc3ccccc3)CCCC2)o1	-7%	1.37
O=C(NC[C@H]1CCN(Cc2ccc3nonc3c2)C1)c1ccccn1	-10%	1.4
Cc1cnc(C(=O)N2CCC[C@H]2c2ccc3c(c2)OCCCO3)cn1	0%	0.05
Cc1cccc(N2CCN(C(=O)CCS(=O)(=O)c3ccc4c(c3)CC(=O)N4C)C[C@@H]2C)c1	-14%	1.83
C[C@@H]1CN(C(=O)c2cccc(-c3cnc(=O)[nH]c3)c2)C[C@H](C)O1	2%	-0.37
COCCCN(Cc1ccc(OC)c(OC)c1)C[C@H](O)C(C)C	5%	-0.77
CCNC(=O)N(Cc1cccc(OS(=O)(=O)C(C)C)c1)CC(C)C	5%	-0.53
COc1c(F)cc(CN2CCC3(CC2)c2ccccc2C[C@@H]3O)cc1Cl	-3%	0.43
COc1ccc(-c2nnc([C@H]3CCN(Cc4ccc5c(c4)OCO5)C3)o2)cc1	-12%	1.98
C/C(=C\c1ccco1)CN1CC[C@H](CNC(=O)C(C)(C)C)[C@@H](O)C1	-15%	1.59
CC(C)c1ccc(NCC2(CO)CCC2)nn1	-7%	0.9
OC(CN(CC1CCOC1)C1CC1)c1ccc(Br)cc1 (configuration not stated)	-2%	0.32
Cc1noc(C)c1S(=O)(=O)N1CCC(c2nnc(C(=O)Nc3ccc(F)cc3F)s2)CC1	-22%	2
COc1ccc(-c2nc(-c3ccc(OC)c4c3OCC4=O)cs2)cc1	1%	-0.24

SMILES	% Inhibition	Z score
Cc1cc(C(=O)N2CCC(O)(Cc3ccccn3)CC2)cc(C)c1F	-11%	1.51
Clc1ccccc1C1(c2nnc(C3CC3)o2)CCOCC1	13%	-1.65
Cc1cc(NC(=O)N2CCCN3c4ccccc4C[C@H]3C2)cn2ccnc12	-8%	0.66
Cc1ccncc1C(=O)N1CCC[C@H](Cn2cc(C(C)(C)N)nn2)C1	-13%	1.83
CCCc1nc(Cn2nc(C)nc2C(F)F)no1	-7%	0.72
COc1ccc2[nH]c(CN3C[C@H](N(C)C)C[C@H]3C(=O)O)c(C)c2c1	5%	-0.7
CCC1C(c2ccc(C)cc2)CCN1Cc1nc(CC(=O)NC)no1 (configuration not stated)	6%	-0.78
C[C@H]1c2nncn2CCN1C(=O)C1CC(O)(C2CCCCC2)C1 (some centres not stated)	0%	0.06
CC1Oc2ccc(NC(=O)NCC3Cc4ccccc4O3)cc2NC1=O (configuration not stated)	3%	-0.42
COc1ccc(S(=O)(=O)N2CCC(c3nc4ccccc4o3)CC2)cc1	-6%	0.66
CCNc1ccnc(N(C)Cc2nc(CC)no2)n1	-11%	2.14
CCCS(=O)(=O)N(C)Cc1ccc(OC)cc1Cl	-4%	0.45
C[C@H]1CN(C(=O)COc2ccc(F)cc2)C[C@]1(O)C1CCC1	-4%	0.56
CCc1ccc([C@@H]2CC(=O)NC(NC(=O)c3ccccc3C)=N2)cc1	-8%	0.94
CCn1cc(C)c(C(=O)O)c1CC(=O)NCc1ccccc1F	0%	0
Cc1nn(C)c(C)c1-c1cc(C(=O)NC[C@@H]2COc3ccccc3C2)n(C)n1	-4%	0.41
CC1CN(C(C)c2nc(-c3ccco3)no2)CC(C)O1 (configuration not stated)	7%	-1.43
CC1(C)C(=O)NC(=O)N1CC(=O)N1CCC(Cc2ccccc2)CC1	-4%	0.76
Cc1ccn2cc(C(=O)N3CCC(Cc4ccccc4)CC3)nc2c1	-11%	1.6
CCC1(CC)NC(=O)N(C[C@H](O)c2ccc(F)cc2F)C1=O	4%	-0.67
Cc1c(C(=O)Nc2cccc(S(=O)(=O)NC3CC3)c2)cnn1C	34%	-1.16
CN(CC(C)(CO)CO)c1ccnc(C(C)(C)C)n1	-13%	1.57

SMILES	% Inhibition	Z score
CC[C@H](NC(=O)c1csc(C(C)C)n1)c1ncnn1C	-13%	2.41
Cc1cccc(-c2ncc(C(=O)NCc3ccc(F)cc3)c(N3CCN(c4ccccc4F)CC3)n2)c1	-12%	1.26
Cc1ccc([C@H]2C[C@@H](O)[C@@H](O)[C@@H]2NS(=O)(=O)c2ccccc2)cc1	-4%	0.63
Cn1cc(C(=O)Nc2ccc(Oc3ccccc3)cc2)nn1	-14%	2.04
O=S(=O)(c1ccc(Cl)s1)N1CCC(N2CCc3sccc3C2)CC1	45%	-7.91
Cc1nnc(NC(=O)COc2ccc3c(c2)C(=O)CC3)s1	5%	-0.61
COc1ccc(C2(NC[C@H]3CCC=CO3)CCOCC2)cc1F	-10%	1.87
CC(C)COc1ncccc1C(=O)N1CCNCC1	-10%	1.32
COc1ccc(Nc2cc(C3CCC3)ncn2)cn1	-17%	1.91
COCCN(CCOC)S(=O)(=O)NCc1cccnc1	-5%	0.7
O=C(NCc1ccccc1Br)c1cncn1-c1cccc(-c2cccc(OC(F)(F)F)c2)c1	-20%	2.82
CCOc1nccnc1N1CC[C@H](NS(=O)(=O)C2CC2)C1	5%	-0.59
COc1ccccc1[C@H]1[C@@H](N)CCCN1C(=O)c1cc(C2CC2)on1	-3%	0.52
O=C(CN1N=C(c2ccccc2F)c2cc(Cl)ccc2S1(=O)=O)Nc1ccccc1	-21%	1.95
CC(C)c1nncn1CCNc1ncc(Cl)cn1	-4%	0.77
O=C(Nc1cnccc1-n1cccn1)c1ccccc1OC1CC1	-9%	1.59
O=C(N[C@H]1COCC[C@@H]1O)c1ccc(C(F)(F)F)cc1N1CCCC1	16%	-2
Cc1ccc(CC(=O)NOCc2ccccn2)cc1	-5%	0.51
C[C@@H]1Oc2ccc(NC(=O)Cc3cccc4ccccc34)cc2NC1=O	-1%	0.22
O=S(=O)(NC[C@@H](CO)CC1CCCC1)C1CC1	12%	-1.29
